Measured values as given in US20100130581A1, “COMPOUNDS AND METHODS FOR THE TREATMENT OF PAIN” (THE UNIVERSITY OF QUEENSLAND, priority 2006, published 2010).
For some assays here: Part of at least one peptide drawing is inferred or uncertain, most often the ends. For at least one compound, name, drawing or mass did not settle the structure. *1 amine or outer side, *2 acyl side, *3 side chain or, on linkers, in order; H or OH if unused. Where a SMILES comes first, the peptide text is derived from it. [ ]: non-standard residue; d: D form. The star is where a group is joined. ξ: configuration not given here. NH(β-D-Glc) = OC[C@H]1O[C@@H](N*)[C@H](O)[C@@H](O)[C@@H]1O; X2 = NC(=O)[C@H]1O[C@@H](N*)[C@H](O)[C@@H](O)[C@@H]1O; Suc = O=C(CCC(=O)[*:2])[*:1]; ξAoc(2) = CCCCCCC(N)C(=O)O; ξD = NC(CC(=O)O)C(=O)O

Key:
[1] = test system: μ- and δ-opioid receptors; assay: Cell based assay of cAMP inhibition in forskolin treated SH-SY5Y cells; settings: SH-SY5Y cell line; for Inhibit c-AMP (%): normalised to the % of cAMP inhibition seen by native endomorphin-1; for Inhibit c-AMP: graded by number of ♦ (up to 5), key not given
Protocol: SH-SY5Y cells endogenously expressing μ- and δ-opioid receptors were cultured (100 μl) in a 96 well-plate and incubated (usually overnight) until 80% confluent. Once cells were ready for assay, Endo-1, Endo-2 and derivatives/analogs were diluted in DMEM culture medium containing 30 μM forskolin. The diluted derivatised endomorphins or derivatised endomorphin analogs were then applied to separate wells for agonist studies and co-incubated for antagonist studies. Cells were incubated with derivatised endomorphins or derivatised endomorphin analogs at 37° C. for 30 minutes, medium was aspirated and cells were lysed using lysis buffer from a cAMP Biotrak EIA kit (Amersham, Buckinghamshire, UK). An anti-cAMP antibody was added to the lysate, and the mixture incubated at 4° C. for 2 hours followed by the addition of a cAMP peroxidase conjugate, and incubated at 4° C. for a further hour. A 3,3′5,5′-tetramethylbenzidine (TMB) substrate provided by the Biotrak EIA kit was then incubated with cell lysate for 1 hour and finally 1 […] was added to facilitate a colour change, which is proportional to the amount of cAMP captured. A cAMP standard curve from 0 to 3200 fmol was also generated concurrently. Plates were then read by a plate reader at 450 nm and compared back to the cAMP standard curve. All data are compared to the maximum cAMP response to forskolin and are represented as the mean+/−standard error of three experiments performed in triplicate. All data are plotted using PRISM program (GraphPad, San Diego, Calif.) (see FIGS. 2a and 2b).

[2] = target: T1, μ-opioid receptor (Homo sapiens, UniProt P35372); assay: Whole cell-based binding assay, displacement of 3H-DAMGO; settings: SH-SY5Y cell line; for Ki: read-out: Binding (Ki), displacement of 3H-DAMGO; for Binding μ-opioid receptor: graded by number of ♦ (up to 5), key not given
T1 construct: SH-SY5Y cells endogenously expressing μ- and δ-opioid receptors; endogenous in cells; host or cells: SH-SY5Y cells
T1 sequence (P35372 whole entry): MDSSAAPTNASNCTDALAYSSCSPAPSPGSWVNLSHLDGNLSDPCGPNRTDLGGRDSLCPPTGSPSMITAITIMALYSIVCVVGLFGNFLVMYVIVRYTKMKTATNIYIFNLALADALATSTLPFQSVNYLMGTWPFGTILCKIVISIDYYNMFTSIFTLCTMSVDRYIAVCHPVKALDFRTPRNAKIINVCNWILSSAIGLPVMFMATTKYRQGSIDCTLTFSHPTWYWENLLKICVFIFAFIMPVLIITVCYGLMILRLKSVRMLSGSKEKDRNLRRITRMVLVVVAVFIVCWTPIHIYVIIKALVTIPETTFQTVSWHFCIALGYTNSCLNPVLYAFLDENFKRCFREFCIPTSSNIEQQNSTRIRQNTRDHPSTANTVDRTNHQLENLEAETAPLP
Protocol: Media was removed and cells were washed with PBS before pre-incubation in 300 μL of binding buffer. Binding studies were performed with 100 μL of appropriate concentrations of ^3H-labeled DAMGO (a selective μ-opioid receptor agonist) and 100 μL of competitor or blank in binding buffer at 37° C. for 60 min. Competition binding experiments were performed using […] of ^3H-labelled DAMGO in the absence or presence of increasing concentrations of unlabeled derivatised endomorphins or derivatised endomorphin analogs. A 1 μM excess of unlabelled DAMGO was used to determine non-specific binding. Following incubation, the cells were washed with PBS and recovered from culture plates using 500 μL of […] before transfer to scintillation vials. Liquid scintillation cocktail (Ultima Gold, Packard, Meriden, USA) was added to these vials for counting in a liquid scintillation analyser. Data are expressed as the mean±SEM of % specific binding of triplicate determinations performed on at least three independent plates of cells. Data were plotted using the one-site competition functions of the PRISM program (Graphpad Inc., San Diego, USA) (see FIGS. 1a, 1b and 7).

NC(=O)[C@H](Cc1ccccc1)NC(=O)[C@H](Cc1c[nH]c2ccccc12)NC(=O)[C@@H]1CCCN1C(=O)[C@H](Cc1ccc(O)cc1)NC(=O)CCC(=O)N[C@@H]1O[C@H](CO)[C@@H](O)[C@H](O)[C@H]1O [Compound 4]
Inhibit c-AMP (%) [1]: 52%

CCCCCCC(N)C(=O)N[C@@H](Cc1ccc(O)cc1)C(=O)N1CCC[C@H]1C(=O)N[C@@H](Cc1c[nH]c2ccccc12)C(=O)N[C@@H](Cc1ccccc1)C(=O)N[C@@H]1O[C@H](C(N)=O)[C@@H](O)[C@H](O)[C@H]1O (some centres unmarked) [Compound 5] (H-[ξAoc(2)]YPWF-X2)
Inhibit c-AMP (%) [1]: 52%

CCCCCCC(N)C(=O)NC(CC(=O)O)C(=O)N[C@@H](Cc1ccc(O)cc1)C(=O)N1CCC[C@H]1C(=O)N[C@@H](Cc1c[nH]c2ccccc12)C(=O)N[C@@H](Cc1ccccc1)C(N)=O (some centres unmarked) [Compound 6] (H-[ξAoc(2)][ξD]YPWF-NH2)
Ki [2]: 4.27 nM
Inhibit c-AMP (%) [1]: 98%

CCCCCCC(N)C=N[C@@H](Cc1ccc(O)cc1)C(=O)N1CCC[C@H]1C(=O)N[C@@H](Cc1c[nH]c2ccccc12)C(=O)N[C@@H](Cc1ccccc1)C(N)=O (some centres unmarked) [Compound 10]
Inhibit c-AMP (%) [1]: 94%

NC(=O)[C@H](Cc1ccccc1)NC(=O)[C@H](Cc1c[nH]c2ccccc12)NC(=O)[C@@H]1CCCN1C(=O)[C@H](Cc1ccc(O)cc1)NC(=O)CCC(=O)N[C@@H]1O[C@H](CO)[C@@H](O[C@@H]2O[C@H](CO)[C@H](O)[C@H](O)[C@H]2O)[C@H](O)[C@H]1O [Compound 12]
Inhibit c-AMP (%) [1]: 90%

CCCCCCC(NC(=O)[C@H](Cc1ccccc1)NC(=O)[C@H](Cc1c[nH]c2ccccc12)NC(=O)[C@@H]1CCCN1C(=O)[C@H](Cc1ccc(O)cc1)NC(=O)CCC(=O)N[C@@H]1O[C@H](CO)[C@@H](O)[C@H](O)[C@H]1O)C(N)=O (stereo partly drawn) [Compound 13] ({NH(β-D-Glc)-Suc}-YPWF[ξAoc(2)]-NH2)
Binding μ-opioid receptor [2]: ♦
Inhibit c-AMP [1]: ♦
Inhibit c-AMP (%) [1]: 42%

CCCCCCC(N)C(=O)NC(CC(=O)N[C@@H]1O[C@H](CO)[C@@H](O)[C@H](O)[C@H]1O)C(=O)N[C@@H](Cc1ccc(O)cc1)C(=O)N1CCC[C@H]1C(=O)N[C@@H](Cc1c[nH]c2ccccc12)C(=O)N[C@@H](Cc1ccccc1)C(N)=O (stereo partly drawn) [Compound 14] (H-[ξAoc(2)][ξD](NH(β-D-Glc))YPWF-NH2)
Ki [2]: 5.19 nM
Inhibit c-AMP (%) [1]: 96%

CCCCCCC(NC(CC(=O)O)C(=O)NC(=O)[C@H](Cc1ccccc1)NC(=O)[C@H](Cc1c[nH]c2ccccc12)NC(=O)[C@@H]1CCCN1C(=O)[C@@H](N)Cc1ccc(O)cc1)C(N)=O (some centres unmarked) [Compound 16]
Ki [2]: 109 nM
Inhibit c-AMP [1]: ♦
Inhibit c-AMP (%) [1]: 59%

CCCCCCC(N=C[C@H](Cc1ccccc1)NC(=O)[C@H](Cc1c[nH]c2ccccc12)NC(=O)[C@@H]1CCCN1C(=O)[C@@H](N)Cc1ccc(O)cc1)C(N)=O (some centres unmarked) [Compound 17]
Binding μ-opioid receptor [2]: ♦
Ki [2]: 164 nM
Inhibit c-AMP [1]: ♦
Inhibit c-AMP (%) [1]: 59%

NC(=O)[C@H]1O[C@@H](NC(=O)[C@H](Cc2ccccc2)NC(=O)[C@H](Cc2c[nH]c3ccccc23)NC(=O)[C@@H]2CCCN2C(=O)[C@@H](N)Cc2ccc(O)cc2)[C@H](O)[C@@H](O)[C@@H]1O [Compound 18]
Inhibit c-AMP (%) [1]: 47%

CCCCCCC(NC(=O)[C@H](Cc1ccccc1)NC(=O)[C@H](Cc1c[nH]c2ccccc12)NC(=O)[C@@H]1CCCN1C(=O)[C@@H](N)Cc1ccc(O)cc1)C(N)=O (some centres unmarked) [Compound 19] (H-YPWF[ξAoc(2)]-NH2)
Inhibit c-AMP (%) [1]: 51%
